Screen size: about 310,000 compounds; about 2,200 (0.71%) showed an effect of 50% or more. Effects have a minus sign here. This is one part of the list.
molecular target: human ether-à-go-go-related gene (hERG) potassium channel (human, UniProt Q12809); assay: primary screen, population patch clamp on CHO cells stably expressing hERG
Sequence (Q12809 whole entry, looked up): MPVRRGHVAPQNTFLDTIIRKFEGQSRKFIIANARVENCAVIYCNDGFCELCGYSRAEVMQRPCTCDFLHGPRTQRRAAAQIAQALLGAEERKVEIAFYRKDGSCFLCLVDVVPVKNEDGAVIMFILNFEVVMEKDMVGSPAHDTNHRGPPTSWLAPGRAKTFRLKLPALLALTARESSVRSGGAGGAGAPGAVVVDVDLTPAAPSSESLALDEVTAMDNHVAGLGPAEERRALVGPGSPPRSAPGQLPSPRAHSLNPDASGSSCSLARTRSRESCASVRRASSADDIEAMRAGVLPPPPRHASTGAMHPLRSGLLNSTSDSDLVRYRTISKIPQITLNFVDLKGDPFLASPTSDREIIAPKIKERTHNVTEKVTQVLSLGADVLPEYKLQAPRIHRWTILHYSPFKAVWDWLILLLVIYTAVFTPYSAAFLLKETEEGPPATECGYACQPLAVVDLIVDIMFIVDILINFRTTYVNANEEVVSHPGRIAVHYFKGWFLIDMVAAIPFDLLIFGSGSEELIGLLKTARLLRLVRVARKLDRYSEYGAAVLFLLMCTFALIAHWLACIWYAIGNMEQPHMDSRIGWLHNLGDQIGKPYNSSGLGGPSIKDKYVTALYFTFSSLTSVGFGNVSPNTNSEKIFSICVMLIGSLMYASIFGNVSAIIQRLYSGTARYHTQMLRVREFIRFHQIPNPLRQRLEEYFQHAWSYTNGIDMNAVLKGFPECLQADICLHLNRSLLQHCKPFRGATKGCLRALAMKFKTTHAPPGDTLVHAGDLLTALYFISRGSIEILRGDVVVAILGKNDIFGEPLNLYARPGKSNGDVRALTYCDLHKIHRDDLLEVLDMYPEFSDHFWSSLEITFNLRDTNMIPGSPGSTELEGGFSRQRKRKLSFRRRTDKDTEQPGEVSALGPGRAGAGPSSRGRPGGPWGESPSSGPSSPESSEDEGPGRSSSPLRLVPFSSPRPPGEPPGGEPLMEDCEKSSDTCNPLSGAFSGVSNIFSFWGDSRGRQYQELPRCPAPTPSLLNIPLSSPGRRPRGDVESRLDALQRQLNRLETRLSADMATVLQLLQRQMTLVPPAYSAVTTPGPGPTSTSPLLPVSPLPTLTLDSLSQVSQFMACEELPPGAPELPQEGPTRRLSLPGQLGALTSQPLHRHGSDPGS

Structure (SMILES) | hERG current change (%, negative = inhibition) at 1uM [%]
COc1ccc2nc(SCC(=O)N3CCN(c4ccc(F)cc4)CC3)c(C#N)cc2c1 | -3
C=CCN1C(=O)c2ccc(C(=O)N3CCN(S(=O)(=O)c4ccccc4Br)CC3)cc2C1=O | -0.0382
O=C(CCc1ccccc1)NC1C2CC3CC(C2)CC1C3 (stereo not drawn) | -2.16
c1cncc(C2CCCCN2)c1 (stereo not drawn) | 9.06
COC(=O)C1CCN(C(=O)Nc2ccc(OC)cc2)CC1 | 2.84
Oc1ccc(/C=N/Nc2ccnc3cc(Cl)ccc23)cc1O | 9.67
COC(=O)c1ccc(C2/C(=C(/O)c3ccc(Cl)cc3)C(=O)C(=O)N2C2CCS(=O)(=O)C2)cc1 (stereo not drawn) | 6.83
COc1ccc(N2C(=O)CC(c3ccc(OC(C)C)cc3)C2=O)cc1 (stereo not drawn) | 7.95
CCOC(=O)Cc1csc(SCc2nc3ccccc3c(=O)[nH]2)n1 | -7.14
O=C1C=C(c2ccc(-c3ccccc3)c(F)c2)C[C@@H](c2ccc3c(c2)OCO3)C1 | -2.34
CCCCOc1ccc(C(=O)Nc2ccc(N3CCN(C)CC3)cc2)cc1 | 3.3
Cc1ccc(-n2ncc3c2CC(C)(C)CC3NC(=O)CCCN2CCCCC2=O)cc1 (stereo not drawn) | 7.71
O=C(O)/C=C/C(=O)NC1CCCCCCCCCCC1 | 10.4
COc1cc(C)nc(N2CCCC(C(=O)Nc3cc(Cl)ccc3OC)C2)n1 (stereo not drawn) | 9.02
CN1CCN(C(=S)NC(=O)/C=C/c2ccccc2Cl)CC1 | 12.2
Brc1ccc(C2N3CCCN23)cc1 (stereo not drawn) | 9.25
Cc1ccnc(NC(=O)c2cccc3ccccc23)c1 | 6.02
CC(C)Nc1nc(Cl)nc(NN(C)c2nc(N(C)C)nc(N(C)C)n2)n1 | 14.3
COc1ccc(C)cc1NC(=O)CCN1CCN(c2ccccc2)CC1 | 3.12
Cc1ccc(S(=O)(=O)N(CC(=O)NCC2CCCO2)Cc2cccc(C)c2)cc1 (stereo not drawn) | -22.5
Cc1ccc(C2CC2/C(=N/O)c2ccc(F)cc2)cc1 (stereo not drawn) | 22.3
CCOP(=S)(OCC)SCC(=O)NC(C)(CC)C(=O)O (stereo not drawn) | 15.4
CCN(CC)CC(=O)N1CCCC(N2CCN(c3cccc(C(F)(F)F)c3)CC2)C1 (stereo not drawn) | 9.29

Structure (SMILES) | hERG current change (%, negative = inhibition) at 1uM [%]
CC(C)(C)NCC(O)COc1cccc2c1CCC(=O)N2.Cl (stereo not drawn) | 6.49
CC(C)(C)NC(=O)c1nn2c(C(F)(F)F)cc(-c3ccccc3)nc2c1Br | 16.6
Cc1ccc2nc(-c3ccc(S(=O)(=O)N4CCCCC4)cc3)cn2c1 | -2.95
CC1CCCCN1S(=O)(=O)c1ccc(C(=O)Nc2nnc(C3=COCCO3)o2)cc1 (stereo not drawn) | 9.98
COC(=O)C1(C)NC(=O)c2ccccc2N1 (stereo not drawn) | 9.4
CC1CN=C(N(C(=S)Nc2ccccc2)c2cccc(C(F)(F)F)c2)S1 (stereo not drawn) | 8.85
O=C(COc1ccccc1)Nc1ccc(F)cc1 | 11.4
Cc1cc(NC(=O)Cc2ccccc2)nc2c1c(=O)oc1ccccc12 | -2.55
O=C1NC(=O)N(CC2CCCO2)C(=O)/C1=C/c1cccs1 (stereo not drawn) | 13.1
COc1cc2c(cc1C1NC(=S)NC(C)=C1C(N)=O)CCCC2 (stereo not drawn) | 11
Cc1ccc(S(=O)(=O)NCC(=O)OC(C)C(=O)c2ccccc2)cc1 (stereo not drawn) | 7.97
CCc1nn(CC(=O)NC2CCN(Cc3ccccc3)CC2)c(=O)c2cc3cc(F)ccc3n12 | 5.16
Cc1[nH]c2ccccc2c1/C=N/O | 22.3
CCC(C(=O)c1ccc2ncccc2c1)c1ccccc1 (stereo not drawn) | 10.7
O=c1c2ccccc2nc(CSc2nnnn2-c2ccccc2)n1-c1ccccc1 | 6.22
O=C(c1ccc2c(=O)n(CCc3ccccc3)c(=O)[nH]c2c1)N1CCN(c2ccc(F)cc2)CC1 | 15.1
CCOC(=O)C1CCCCN1C(=O)c1ccc2nc(Cc3ccc(OC)cc3)oc2c1 (stereo not drawn) | 12.5
O=C(OCCOc1ccc(Br)cc1)c1ccc(Cl)nc1 | 17.7
CN(C)CCOC(=O)c1sc2ccccc2c1Cl.Cl | 1.45
N#C/C(=C\c1ccco1)Sc1nc2ccccc2s1 | 4.35
Cn1c2ccccc2c(=O)c2c(=O)n(C3CCCCC3)c(-c3ccco3)nc21 | 5.88
O=C(c1ccccc1)N1CCN(S(=O)(=O)c2cccs2)CC1 | 3.67

Source: paper PMC4336329 (PLoS ONE, 2015)
